From PubChem BioAssay AID1671194 (National Center for Advancing Translational Sciences (NCATS), 2021)
Out of some 140,000 compounds screened, about 240 (0.17%) were called active. The shares of active, inactive and inconclusive entries below differ from those in the screen. Calls come from the whole dose curve; as a rule, active = well fitted inhibition curve with a large enough effect; inconclusive = small, poorly fitted or top-dose-only effect; inactive = no such curve, though single readings can be large or run the other way. A potency beside an inconclusive call is a rough fit, not a confirmed value.

experiment: Primary qHTS assay for inhibitors of alpha-synuclein gene (SNCA) expression; conditions: HEK-293 SNCA-luciferase knock-in, luminescence, 24 h; series mostly up to 57.2 µM; note: nearly all actives have a fitted effect of over 45% in size
Potency is the fitted concentration of half-maximal effect; tags give direction and shape of the fitted curve.

SMILES	Potency
CC(=O)N1CCN(C(=O)c2ccc(-c3ncc4cnc(-c5cccc(F)c5)cn34)cc2)CC1	inactive
CN1CCCN(CCC(=O)N2CCC3(CC2)OCCCC3O)CC1 (stereo unspecified)	inconclusive: 2.24 µM [inhibitor, partial curve, poor fit]
O=c1n(-c2ccc(C(F)(F)F)cc2)nc2n1CCN([S+](=O)([O-])c1ccccc1)C2	inconclusive: 1.58 µM [inhibitor, partial curve, poor fit]
COc1ccc(-c2ccc3nnc(CNC(=O)c4cc(Cl)ccc4F)n3n2)cc1	inactive
CCOC(=O)C1CCCN(S(=O)(=O)c2ccc3c(c2)CCCN3C(C)=O)C1 (stereo unspecified)	inconclusive: 39.8 µM [inhibitor, single point]
O=C(NCCC1=CCCCC1)c1cccnc1N1CC2CC(C1)[C@H]1CCCC(=O)N1C2 (stereo partly specified)	inactive
O=C(O)c1ccc2c(c1)nc(Nc1cccc(Cl)c1)c1ccncc12	inconclusive: 1.71 µM [inhibitor, full curve, poor fit]
CO[C@H]1C[C@@H](O)C12CCN(C(=O)Cn1cc(C)c(=O)[nH]c1=O)CC2	inconclusive: 39.8 µM [inhibitor, single point]
Cn1ncc2c(C(=O)NC3CC3)cc(C(C)(C)C)nc21	inconclusive: 12.6 µM [inhibitor, partial curve, poor fit]
CC1(CCCCc2ccccc2)COc2ccc(C(=O)Nc3cccnc3)cc2N1 (stereo unspecified)	inconclusive: 12.6 µM [inhibitor, full curve, poor fit]
CN(C)C(=O)c1ccc(-c2cccc(-c3ccn(CC4CC4)n3)c2)o1	inactive
CCOC(=O)c1c(Nc2ccc(C)cc2)nnc(-c2ccccc2)c1-c1ccccc1	inconclusive: 39.8 µM [inhibitor, single point]
COc1cccc(CNC(=O)C2CCCN(S(=O)(=O)c3ccc4c(ccn4C)c3)C2)c1 (stereo unspecified)	inconclusive: 5.01 µM [inhibitor, full curve]
COc1cc(Cl)cn2c(-c3cccc(NC4CNC4)n3)cnc12	inconclusive: 6.81 µM [inhibitor, full curve, poor fit]
O=C(Cc1c[nH]c2ncc(-c3ccccc3)cc12)NC1CCOCC1	inconclusive: 12.6 µM [inhibitor, single point]
CCC(C(=O)Nc1ccc(C(=O)OC)cc1)n1c(=O)c(-c2ccccc2NC(C)=O)nc2ccccc21 (stereo unspecified)	inconclusive: 39.8 µM [inhibitor, single point]
CN1CCCC1c1nc(C2CN(C(=O)CCCc3nc4ccccc4[nH]3)C2)no1 (stereo unspecified)	inconclusive: 3.16 µM [inhibitor, partial curve, poor fit]
COc1ccc(Nc2ccnc(N3CCC(N[S+](=O)([O-])c4ccccc4)CC3)n2)cc1	inactive
Fc1ccc(C2Cn3nnc(-c4nc(C5CCCCC5)no4)c3CO2)cc1 (stereo unspecified)	inactive
CCc1ccc(C(=O)c2cn(CC(=O)Nc3ccc(F)c(F)c3)c3cc(OC)c(OC)cc3c2=O)cc1	inconclusive: 12.6 µM [inhibitor, partial curve]
Cc1ccc(NC(=O)c2cc(S(=O)(=O)NCCC3=CCCCC3)ccc2F)cc1F	inconclusive: 39.8 µM [inhibitor, single point]

SMILES	Potency
COc1ccc(Cl)cc1NC(=O)c1ccc2nc(Cc3ccccc3)oc2c1	inconclusive: 39.8 µM [inhibitor, single point]
Cc1ccc(-n2ncc3c(N4CCCCCC4)ncnc32)cc1	active: 2.24 µM
Cc1ccc(Cn2c(=O)c3cccnc3n(CC(=O)Nc3cccc(C(F)(F)F)c3)c2=O)cc1	inconclusive: 28.2 µM [inhibitor, single point]
O=C(NCc1cccnc1)C1CCC(=O)N(CCCN2CCCC2=O)C1 (stereo unspecified)	inconclusive: 3.55 µM [inhibitor, full curve, poor fit]
COc1cc(NC(=O)CCn2c(-c3ccccc3)cc(C(C)=O)c2C)cc(OC)c1	inconclusive: 28.2 µM [inhibitor, single point]
CC(=O)Nc1ccc(C(=O)NC[C@@H]2C=C(C)[C@H](CC(=O)NCCN3CCOCC3)C[C@H]2C(C)C)cc1	inactive
CCc1cccc(NC(=O)Nc2ccc3c(c2)N(C)C(=O)c2ccccc2S3)c1	inconclusive: 39.8 µM [inhibitor, single point]
c1ccc(-n2ncc3c(NC4CCCC4)ncnc32)cc1	inactive
O=C(Nc1ccc(Cl)cc1Cl)c1cnn2c1CN(C(=O)c1ccccc1)CC2	inconclusive: 8.91 µM [inhibitor, single point]
O=C(CN1C(=O)NC(c2ccc(Cl)cc2)C2=C1COC2=O)NCCc1ccc(Cl)cc1 (stereo unspecified)	inconclusive: 39.8 µM [inhibitor, single point]
O=C(O)CCn1ncc2cc(OCC3CCN(C(=O)CCC(F)(F)F)CC3)ccc21	inactive
O=C(NCCCc1ccccc1)c1n[nH]c2c1CN(C(=O)c1ccc3c(c1)OCO3)CC2	inconclusive: 39.8 µM [inhibitor, partial curve, poor fit]
CCc1nc(-c2c3n(c(=O)n(CC(=O)Nc4ccccc4OC)c2=O)CCCC3)no1	inconclusive: 3.98 µM [inhibitor, partial curve, poor fit]
CCCN(CC1CCOC1)C(=O)Nc1ccc(C)c(Cl)c1 (stereo unspecified)	inactive
O=C1CC2(CCN(C(=O)c3ccccc3)C2)Nc2ccccc2N1 (stereo unspecified)	inconclusive: 12.6 µM [inhibitor, partial curve, poor fit]
CCNC(=O)c1cccc2c1CCN2C(=O)Nc1ccc(C)cc1	inconclusive: 1.41 µM [inhibitor, full curve, poor fit]
Cc1cc(CNC(=O)c2ccncc2)c2[nH]c(-c3ccccc3)c(C)c2c1	inactive
CCN(CC)C(=O)C1CCN(S(=O)(=O)c2ccc3c(c2)CCCN3C(C)=O)CC1	inconclusive: 39.8 µM [inhibitor, single point]
CC(=O)N1CCN(C(=O)c2ccc3nnc(Cc4ccc(Cl)cc4)n3c2)CC1	inactive
COc1ccc(-c2nc(N3CCOCC3)cc3c2CN(Cc2cnn(C)c2)C3=O)cc1OC	inactive
